In PubChem BioAssay (NCATS):
This list was built around the results that the source calls inconclusive (neither active nor inactive); the mix of calls is not that of the screen. For some of these results: Where the call is inconclusive, the potency comes from a doubtful curve fit. Active and inactive are the calls of the source. Unless noted, calls come from the whole dose curve; as a rule, active = well fitted curve in the direction sought with a large enough effect; inconclusive = small, poorly fitted or top-dose-only effect, or another doubt; inactive = no such curve, though single readings can be large; an effect the other way counts as inactive or inconclusive.

Tests used:
[1] = P-glycoprotein substrates identified in KB-8-5-11 adenocarcinoma cell line, qHTS therapeutic library screen (AID 1346987); note: nearly all actives have a fitted effect of over 65% in size; note: potency is the fitted concentration of half-maximal effect; for activity change, negative = cytotoxicity: % is set by controls: 0 for no effect and ±100 for the full control effect
How it was run: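 KB-8-5-11, a colchicine-selected P-gp-overexpressing KB-3-1 subline, was grown without colchicine for the assay. Cells were seeded at 500 cells/well, dosed in concentration-response and incubated 72 h at 37 degree C, 5% CO2. Viability was read by CellTiter-Glo luminescence.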

[2] = Primary qHTS for inhibitors of nuclear receptor binding SET domain protein 2 (NSD2) in an isogenic RCH-ACV NSD2 p.E1099K mutant (9B) (AID 1645876); note: nearly all actives have a fitted effect of over 70% in size; note: potency is the fitted concentration of half-maximal effect
[3] = Primary qHTS for inhibitors of nuclear receptor binding SET domain protein 2 (NSD2) in an RCH-ACV wild type WT cells (2C) (AID 1645877); conditions: activity change, negative = cell killing: at 44.9 µM (top of the series) unless noted; note: potency is the fitted concentration of half-maximal effect; nearly all actives have a fitted effect of over 70% in size
CRL-7250 = normal cell line; experiment: Cytotoxic Profiling of Annotated Libraries Using Quantitative High-Throughput Screening (AID 1296008); conditions: Five cell lines viability, CellTiter-Glo ATP luminescence, 48-72 h; max response: hits give low values; note: nearly all actives have a fitted effect of over 60% in size; for max response: % is set by controls: 0 for no effect and ±100 for the full control effect
How it was run: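 Compounds were pin-transferred onto cells and incubated 48 or 72 hr at 37 degree Celsius, 95% humidity. CellTiter-Glo was added, plates sat 10 min at room temperature, then ATP-coupled luminescence was imaged as the viability read-out.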

[4] = qHTS of pediatric cancer cell lines to identify multiple opportunities for drug repurposing: Primary screen for BT-37 cells (AID 1347094);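 note: plate controls were DMSO for no effect and bortezomib for full effect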
How it was run: (§1)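 Plated cells (500-1,000 per well, growth media) were allowed to settle for 5 hours, treated with compound dilutions for 48 hours, then lysed with CellTiter-Glo for 15 min at room temperature before luminescence reading.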

[5] = Primary qHTS for small molecule stabilizers of the endoplasmic reticulum resident proteome: Secreted ER Calcium Modulated Protein (SERCaMP) assay (AID 1508630); conditions: SH-SY5Y GLuc-SERCaMP (Gaussia luciferase released on ER calcium loss) secretion, thapsigargin, luminescence; activity change, negative = inhibition: at 38.4 µM (top of the series) unless noted; note: potency is the fitted concentration of half-maximal effect
How it was run: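 GLuc-SERCaMP-expressing SH-SY5Y cells, pretreated 16 h with compound, are challenged with thapsigargin to empty ER calcium stores; after 4 h, coelenterazine is added directly to the medium and luminescence is imaged.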

[6] = biological target: Cytochrome P450 2C9 (Homo sapiens) (UniProt P11712); experiment: Cytochrome P450 family 2 subfamily C member 9 (CYP2C9) small molecule antagonists: luciferase biochemical (cell-free) qHTS assay (AID 1645842; active = well fitted curve in the direction sought with a large enough effect in the repeat runs; inconclusive = weak or mixed curves; inactive = no such curve, though single readings can be large; an effect the other way counts as inactive or inconclusive; note: % is set by controls: 0 for no effect and ±100 for the full control effect; nearly all actives have a fitted effect of over 55% in size)
Chain of UniProt P11712 (P11712 whole entry, looked up): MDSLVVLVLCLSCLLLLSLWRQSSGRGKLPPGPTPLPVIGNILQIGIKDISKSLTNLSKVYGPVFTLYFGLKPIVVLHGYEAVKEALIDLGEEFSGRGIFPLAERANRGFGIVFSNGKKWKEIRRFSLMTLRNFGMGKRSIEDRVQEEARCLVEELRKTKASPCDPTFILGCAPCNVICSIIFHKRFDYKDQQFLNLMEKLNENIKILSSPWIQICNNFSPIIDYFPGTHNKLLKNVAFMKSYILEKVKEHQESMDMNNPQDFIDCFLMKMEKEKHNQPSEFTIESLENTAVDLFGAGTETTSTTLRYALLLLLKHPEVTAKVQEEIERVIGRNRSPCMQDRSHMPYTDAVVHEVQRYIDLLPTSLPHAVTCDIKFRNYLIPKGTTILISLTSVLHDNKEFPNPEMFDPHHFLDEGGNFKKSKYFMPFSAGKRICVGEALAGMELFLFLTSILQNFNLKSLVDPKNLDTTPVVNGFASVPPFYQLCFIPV
How it was run: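 Luminescence, after 20 min with luciferin detection reagent, reflected CYP2C9 turnover during a 1 h NADPH-driven reaction at 37C. Enzyme-substrate mix contained 0.4% bovine serum albumin and was preincubated with compound 10 min at room temperature.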

[7] = Drug repurposing screens with cells derived from glioblastoma tumor samples (AID 1345199); conditions: GBM patient neurospheres viability, ATP luminescence, 48 h; Potency: tumour line A unless noted; activity, negative = cell killing: at 46 µM (top of the series), tumour line A unless noted; note: potency is the fitted concentration of half-maximal effect; nearly all actives have a fitted effect of over 40% in size
How it was run: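 Four patient lines of CD133+ GBM neurospheres were screened at several concentrations; hits were retested in those lines plus three slower-growing GBM lines, using 48-hour treatment and ATP-based viability.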

[8] = system: Zika virus NS2B-NS3 protease (unlinked complex); experiment: Primary screen GU Rhodamine qHTS for Zika virus inhibitors: Unlinked NS2B-NS3 protease assay (AID 1347159); note: potency is the fitted concentration of half-maximal effect; nearly all actives have a fitted effect of over 60% in size
How it was run: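 Noncovalent NS2B hydrophilic domain–NS3 protease domain complex (25 nM) preincubated 15 min at room temperature with compounds (up to 114 microM) in 10 mM Tris-HCl pH 8.0, 0.01% Tween 20; 1.5 microM Rhodamine110 substrate added, fluorescence change over 15 min fitted to Hill equation.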

[9] = system: Zika virus NS2B-NS3 protease (linked construct); experiment: Primary screen NINDS Rhodamine qHTS for Zika virus inhibitors (AID 1347160); conditions: activity change, negative = inhibition: at 57.1 µM (top of the series) unless noted; note: potency is the fitted concentration of half-maximal effect; nearly all actives have a fitted effect of over 55% in size
How it was run: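 Purified linked NS2B-NS3 protease (NS2B hydrophilic domain joined to NS3 protease by flexible linker), 25 nM in 10 mM Tris-HCl pH 8.0, 0.01% Tween 20. Compounds titrated, 15 min preincubation at room temperature; 1.5 microM Rhodamine110 substrate, FITC fluorescence change over 15 min.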

[10] = Primary fluorescence-based thiol-reactive (MSTI) qHTS assay for identification of artifact compounds. (AID 1845221);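 note: thiol-reactive compounds lower the probe fluorescence signal; nearly all actives have a fitted effect of over 65% in size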
How it was run: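 Compounds were incubated 1 h at room temperature in the dark with the MSTI probe (4 uM) in PBS pH 7.4, 2% DMSO. Signals were normalized between Acetyl-MSTI and MSTI.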

[11] = qHTS of pediatric cancer cell lines to identify multiple opportunities for drug repurposing: Primary screen for Saos-2 cells (AID 1347097); note: % is set by controls: 0 for no effect and ±100 for the full control effect; nearly all actives have a fitted effect of over 40% in size
How it was run: as §1

[12] = qHTS of pediatric cancer cell lines to identify multiple opportunities for drug repurposing: Primary screen for OHS-50 cells (AID 1347103); note: potency is the fitted concentration of half-maximal effect; nearly all actives have a fitted effect of over 40% in size
How it was run: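 Cells (500-1,000/well) rested 5 h, then received compounds for 48 h; metabolically active cells were measured by CellTiter-Glo luminescence. Final concentrations spanned up to 46 µM (MIPE, 11-point) or 0.59 nM-46 µM (NPC, 8-point) in primary screens, 11-point in follow-ups.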

[13] = qHTS of pediatric cancer cell lines to identify multiple opportunities for drug repurposing: Primary screen for Rh41 cells (AID 1347108);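 note: luminescence drop marks cytotoxic hits; nearly all actives have a fitted effect of over 70% in size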
How it was run: as §1

[14] = Confirmatory qHTS for small molecule stabilizers of the endoplasmic reticulum resident proteome: Secreted ER Calcium Modulated Protein (SERCaMP) assay (AID 1508628); note: potency is the fitted concentration of half-maximal effect; nearly all actives have a fitted effect of over 40% in size
How it was run: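 SH-SY5Y cells stably expressing GLuc-SERCaMP, treated 16 h with compound (primary 1.53, 7.67, 38.3 uM; confirmation 11 concentrations, up to 76.6 uM), then 100 nM thapsigargin for 4 h. Secreted Gaussia luciferase in medium read by coelenterazine luminescence.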

[15] = Cell Viability qHTS for small molecule stabilizers of the endoplasmic reticulum resident proteome (AID 1508629); conditions: cell viability counter-screen, 100 nM thapsigargin for final 4 h;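 note: human SH-SY5Y neuroblastoma cells carrying the GLuc-SERCaMP reporter; compound exposure about 46 h in total before the viability read; % is set by controls: 0 for no effect and ±100 for the full control effect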
Tov-21-G = experiment: Primary qHTS to identify gynecologic anti-cancer compounds using libraries of approved drugs and bioactive compounds (AID 1345084); conditions: Gynecologic cancer cell panel viability, ATPlite luminescence, 48 h; activity change, negative = cytotoxicity: at 57.5 µM (top of the series) unless noted; note: % is set by controls: 0 for no effect and ±100 for the full control effect; nearly all actives have a fitted effect of over 55% in size
How it was run: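 Luminescence from the ATPlite ATP-monitoring reagent indicates viable cell number; lower signal means cytotoxicity. Cells received compound 16 h after seeding and were exposed for 48 h across five concentrations.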
Tags give direction and shape of the fitted curve.

COC(=O)[C@H](O)[C@H]1C(C)(C)[C@H](OC(=O)C(C)C)[C@@]2(O)C(=O)[C@]1(C)C1CC[C@]3(C)C(CC(=O)O[C@H]3c3ccoc3)[C@]13O[C@@H]32 (stereo partly drawn)
inconclusive: Potency [1] 1.72 µM [inhibitor, single point] | Potency [2] 9.63 µM [inhibitor, single point] | Potency [3] 9.63 µM [inhibitor, single point]
inactive: max response (CRL-7250) -16.9%

NC[C@H]1O[C@H](O[C@H]2[C@H](O)[C@@H](O[C@H]3O[C@H](CO)[C@@H](O)[C@H](N)[C@H]3O)[C@H](N)C[C@@H]2N)[C@H](N)[C@@H](O)[C@@H]1O
inconclusive: Potency [5] 12.6 µM [inhibitor, single point] | Potency [7] 8.91 µM [inhibitor, partial curve]
inactive: Potency [1] | Potency [4] | Potency [6] | max response (CRL-7250) -9.82%

CC(=C\C(C)O)/C=C(\C)C(=O)CC1CC(CC(N)=O)CC(=O)O1 (stereo not drawn)
inactive: Potency [1] | outcome (CRL-7250)

CC(=O)NC(C(=O)OC1CCC(C)(C)C2CC=C3C(=O)OCC3C12C)C(C)C (stereo not drawn)
inactive: Potency [2] | Potency [10] | outcome (CRL-7250)
inconclusive: Potency [8] 20 µM [inhibitor, partial curve] | Potency [9] 10 µM [inhibitor, partial curve] | Potency [3] 11.3 µM [inhibitor, partial curve, poor fit]

Cn1cc(C(=O)[C@@H]2CCc3nc[nH]c3C2)c2ccccc21
inactive: Potency [11] | Potency [13] | max response [15] 11.5% | outcome (CRL-7250) | Potency (Tov-21-G)
inconclusive: Potency [12] 19.5 µM [cytotoxic, single point] | Potency [14] 28.2 µM [inhibitor, partial curve] | Potency [5] 31.6 µM [inhibitor, partial curve, poor fit] | Potency [2] 29.9 µM [inhibitor, single point] | Potency [3] 33.5 µM [inhibitor, single point]
